# Measurements reported in PubChem BioAssay AID662 (National Center for Advancing Translational Sciences (NCATS), 2007).
# About 1,800 (2.5%) of roughly 71,000 compounds were called active. This list was built around the results that the source calls inconclusive (neither active nor inactive); the mix of calls is not that of the screen. Calls follow the shape of the dose curve; as a rule, active = well fitted activation curve with a large enough effect in the signal ratio, with a control signal flat (not every such curve was filed as active); inconclusive = small, poorly fitted or top-dose-only effect, or effect the other way, or a change in a side signal; inactive = flat fitted curve, though single readings scatter; the % refers to the signal ratio. Potencies of inconclusive entries are doubtful fits and often do not repeat.
# Assay: Cell signaling CRE-BLA (Fsk stim); as to activity change, negative = inhibition: % of control where 0% means no effect
# Settings: CHO CRE-bla reporter (cAMP response element driving beta-lactamase), forskolin EC10, beta-lactamase ratio; activity change, negative = inhibition: at 38.2 µM (top of the series) unless noted
# In short: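 Cells were plated overnight at 37 °C, exposed to compound titrations plus EC10 NKH 477 for 3 h, then given CCF4 dye for 2 h at room temperature. Blue/green (460/530 nm) ratio was converted to %Activity and AC50 values calculated.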
# Potency is read from the fitted curve at half-maximal effect; tags tell the direction and shape of the fitted curve.
SMILES,"activity change, negative = inhibition",Potency
Nc1nc(N)nc(CC(=O)O)n1,inactive: -6.25% [at 7.6 µM],
Cc1ccc(CC(=O)N2CCC(c3nc4c(nnn4Cc4ccccc4)c(=O)[nH]3)CC2)cc1,,active: 10 µM
COc1cccc(C(=O)NCC(c2cccnc2)N2CCN(c3ccccc3OC)CC2)c1 (stereo unspecified),,"inconclusive: 12.6 µM [rising, single point]"
Nc1nc(OCC(F)(F)F)cc(Oc2ccccc2F)n1,inconclusive: 24.8% [at 7.6 µM],
CSc1nc(NCC(C)C)nc(N2CCOCC2)n1,,"inconclusive: 15.8 µM [rising, partial curve]"
COc1ccc(-c2nnc(SCC(=O)Nc3cc(C)on3)n2C)cc1OC,,"inconclusive: 10 µM [rising, single point]"
N#CCCn1c(=O)c(-c2ccc(Cl)cc2)nc2cnc(OCc3ccccc3)nc21,,"inconclusive: 6.31 µM [rising, partial curve]"
Cc1nc2sc(-c3ccccc3)cc2c(=O)n1-n1cccc1,,"inconclusive: 1.58 µM [rising, full curve, poor fit]"
CCOC(=O)C1CCN(C(=O)CSCc2nc(-c3ccc(OCC)cc3)oc2C)CC1,inconclusive: 6.56%,
CCOC(=O)c1c(N)sc2c(OC)c(Br)ccc12,,"inconclusive: 12.6 µM [rising, partial curve]"
CN(C)c1ccc(-c2nc(NC3CCNCC3)c3ccccc3n2)cc1,,"inconclusive: 3.98 µM [falling, full curve]"
O=S(=O)(Nc1cccc2cccnc12)c1ccc(S(=O)(=O)N2CCCC2)cc1,inconclusive: 22.6%,
CCOC(=O)c1c(NC(=O)COC)sc(C(C)=O)c1C,,active: 12.6 µM
COCCOC(=O)C1=C(C)NC(=O)NC1c1c(F)cccc1Cl (stereo unspecified),inconclusive: -4.62% [at 7.6 µM],
COc1ccc(OC)c2[nH]c(=O)c(CCNS(=O)(=O)c3ccc(Cl)cc3)cc12,inconclusive: 19.5%,
CCOC(=O)C(NC(=O)CC)(Nc1ccc(S(=O)(=O)Nc2onc(C)c2C)cc1)C(F)(F)F (stereo unspecified),inconclusive: 1.98%,
Cc1cc(NCCCN2CCOCC2)n2ncc(-c3ccc(Cl)cc3)c2n1,,active: 1.58 µM
c1ccc(-c2cccc(N3CC4(CCNCC4)C3)c2)cc1,inactive,
COc1ccc(-n2c(=O)c(-c3cn(C)c4ccccc34)nc3cnc(OC)nc32)cc1,,active: 0.2 µM
OC1CN=C2CCCc3c2n(c2ccc(Cl)cc32)C1 (stereo unspecified),inconclusive: -21.7%,
C[C@@H](C(=O)Cc1ccc2ccccc2c1)[C@@H]1C[C@@]1(C)[C@@H](NP(=O)(c1ccccc1)c1ccccc1)c1ccccc1,inactive,
